Assay results as given in the supplement of paper PMC7826260.
Some of the results follow. Cleavage of a single-stranded DNA pool by Rep nickase domains was read by sequencing at 3 µM enzyme and 37 °C for 1 h; the strands have 90 letters, of which the middle is given. A value is the log2 ratio of uncut reads to the pool without enzyme; the lower, the more was cut; hits are not called. Counts are relative to all reads; values above 0 arise when much of the pool is cut.

Tests used:
Assay in all cases: uncleaved DNA left, log2 of reads against the no-enzyme library (log2 ratio); higher = less cleavage (more negative = more Rep cleavage of the k-mer); sequences stand for … in CTCGTCCG…ACCGGAGA
[1] = tested on: T1, Rep nickase domain of Muscovy duck circovirus
T1 sequence (residues 1-111, tag not shown): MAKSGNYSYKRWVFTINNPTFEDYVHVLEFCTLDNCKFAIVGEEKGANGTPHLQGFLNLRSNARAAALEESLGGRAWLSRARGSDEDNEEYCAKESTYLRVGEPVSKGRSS
Procedure: (§1)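 A pool of 90-nt single-stranded DNAs with seven random bases just before the constant AC of the nick site (name = the seven bases) was cut by 3 µM recombinant His6-SUMO-tagged Rep nickase domain (300 nM DNA, 50 mM HEPES pH 8.0, 50 mM NaCl, 1 mM MnCl2, 1 h, 37 °C, three replicates). Uncut DNA was amplified and sequenced.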

[2] = tested on: T2, Rep nickase domain of banana bunchy top virus
T2 sequence (residues 1-94, tag not shown): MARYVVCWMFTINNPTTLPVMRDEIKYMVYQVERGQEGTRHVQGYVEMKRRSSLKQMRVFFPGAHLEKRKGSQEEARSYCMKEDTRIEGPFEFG
Procedure: as §1

[3] = tested on: T3, Rep nickase domain of cabbage leaf curl virus
T3 sequence (residues 1-116, tag not shown): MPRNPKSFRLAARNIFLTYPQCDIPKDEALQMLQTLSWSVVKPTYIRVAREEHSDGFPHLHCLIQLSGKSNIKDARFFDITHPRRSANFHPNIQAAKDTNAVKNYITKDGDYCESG
Procedure: as §1

[4] = tested on: T4, Rep nickase domain of chickpea chlorotic dwarf virus
T4 sequence (residues 1-124, tag not shown): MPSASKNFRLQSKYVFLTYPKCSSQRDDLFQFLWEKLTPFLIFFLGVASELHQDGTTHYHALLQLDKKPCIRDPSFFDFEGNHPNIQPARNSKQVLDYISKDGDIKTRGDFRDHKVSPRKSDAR
Procedure: as §1

[5] = tested on: T5, Rep nickase domain of faba bean necrotic yellows virus
T5 sequence (residues 1-98, tag not shown): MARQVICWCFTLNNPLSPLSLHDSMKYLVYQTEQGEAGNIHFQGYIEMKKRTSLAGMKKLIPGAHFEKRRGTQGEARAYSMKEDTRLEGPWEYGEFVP
Procedure: as §1

[6] = tested on: T6, Rep nickase domain of maize striate mosaic virus
T6 sequence (residues 1-117, tag not shown): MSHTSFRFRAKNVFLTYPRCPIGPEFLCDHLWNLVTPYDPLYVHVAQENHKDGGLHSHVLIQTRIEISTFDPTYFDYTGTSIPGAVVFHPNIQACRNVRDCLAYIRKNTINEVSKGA
Procedure: as §1

[7] = tested on: T7, Rep nickase domain of porcine circovirus 2
T7 sequence (residues 2-116, tag not shown): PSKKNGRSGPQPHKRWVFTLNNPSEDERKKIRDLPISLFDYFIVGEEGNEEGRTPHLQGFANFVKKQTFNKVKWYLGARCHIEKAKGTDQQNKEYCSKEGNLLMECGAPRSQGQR
Procedure: as §1

[8] = tested on: T8, Rep nickase domain of tomato golden mosaic virus
T8 sequence (residues 1-124, tag not shown): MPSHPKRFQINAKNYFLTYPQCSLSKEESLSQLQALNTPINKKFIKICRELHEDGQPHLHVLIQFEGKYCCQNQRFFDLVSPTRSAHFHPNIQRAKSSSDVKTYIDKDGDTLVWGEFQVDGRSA
Procedure: as §1

[9] = tested on: T9, Rep nickase domain of tomato yellow leaf curl virus
T9 sequence (residues 1-136, tag not shown): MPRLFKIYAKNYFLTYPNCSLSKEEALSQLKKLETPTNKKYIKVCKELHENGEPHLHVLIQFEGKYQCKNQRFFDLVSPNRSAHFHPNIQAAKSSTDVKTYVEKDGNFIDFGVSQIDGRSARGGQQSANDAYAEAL
Procedure: as §1

[10] = tested on: T10, Rep nickase domain of wheat dwarf virus
T10 sequence (residues 1-137, tag not shown): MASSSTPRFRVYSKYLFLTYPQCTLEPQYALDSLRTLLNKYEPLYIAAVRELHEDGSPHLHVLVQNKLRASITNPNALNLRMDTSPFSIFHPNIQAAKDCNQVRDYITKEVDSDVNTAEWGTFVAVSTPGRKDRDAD
Procedure: as §1

Sequence	uncleaved DNA left (log2) [1]	uncleaved DNA left (log2) [2]	uncleaved DNA left (log2) [3]	uncleaved DNA left (log2) [4]	uncleaved DNA left (log2) [5]	uncleaved DNA left (log2) [6]	uncleaved DNA left (log2) [7]	uncleaved DNA left (log2) [8]	uncleaved DNA left (log2) [9]	uncleaved DNA left (log2) [10]
TTATGGC	0.101	0.0401	-0.114	-0.361	0.121	-0.932	-0.0277	-0.107	0.113	-0.00273
TGGGCCG	0.0237	-0.0247	-0.473	0.167	-0.00492	-0.455	0.0649	-0.0696	-0.0451	-0.14
TCCCTAA	0.149	0.0311	0.25	-0.133	0.12	-0.183	-0.00777	0.0548	-0.13	0.159
AGCAGCG	0.0906	0.118	-0.874	-0.0684	0.14	-0.912	0.189	0.0202	0.033	0.0584
TCACCGG	-0.0445	0.0671	0.452	1.39	-0.0557	1.79	0.0355	0.184	-0.0663	0.0796
ATTATGT	-0.391	-0.0709	-0.0806	-0.503	0.00406	-0.958	-3.08	-0.0605	0.0149	-0.0194
GGAGCCG	0.0709	0.14	-0.345	-0.0967	0.0781	-0.281	0.232	0.153	0.0741	0.0199
CGACTAG	0.0486	0.139	-0.119	0.736	0.0519	1.43	0.116	0.0249	0.0802	0.0627
ACTCTCA	-0.078	0.0754	-0.218	-1.13	0.0333	-0.549	0.0119	0.0295	0.0476	0.0905
AGAGATT	0.0518	-0.192	0.149	0.178	0.063	1.42	-0.227	0.0509	-0.209	-0.12
GTACGAT	0.0694	0.0578	0.28	0.63	0.0207	1.63	0.216	0.137	0.182	0.0626
TTACTGT	0.151	0.111	0.0578	-0.243	0.00792	0.996	0.0345	-0.159	0.0132	0.0277
CCTCGGC	0.252	0.0706	0.167	0.0253	0.0134	-0.547	0.193	0.065	-0.000885	-0.0469
TTACCAT	-0.0493	0.0924	0.0132	-2.25	0.0206	-0.137	-1.15	-0.0911	0.125	0.113
CATTTTA	-1.01	-1.23	-0.0704	-2.06	0.0865	-0.619	-1.75	0.121	0.133	0.16
GGCCGAT	0.2	0.161	0.761	1.65	0.0916	1.95	0.265	0.231	0.226	0.188
ACGATTG	-0.00472	0.0308	-0.0512	0.455	-0.0158	0.589	-0.00166	0.0254	0.0181	-0.0396
GATTAGG	0.0732	0.0815	0.345	1.23	0.0362	1.27	0.169	0.104	0.0291	0.0973
CCTCTTG	0.0214	-0.0605	-0.623	-1.34	0.147	-1.09	0.0367	0.00487	0.0412	-0.153
ACCCTAT	0.142	0.0134	-0.0485	-0.775	0.137	-0.242	0.0234	0.0252	-0.0832	0.0998

Sequence	uncleaved DNA left (log2) [1]	uncleaved DNA left (log2) [2]	uncleaved DNA left (log2) [3]	uncleaved DNA left (log2) [4]	uncleaved DNA left (log2) [5]	uncleaved DNA left (log2) [6]	uncleaved DNA left (log2) [7]	uncleaved DNA left (log2) [8]	uncleaved DNA left (log2) [9]	uncleaved DNA left (log2) [10]
CCACCCG	-0.107	-0.0332	-0.904	-0.38	-0.0938	-0.812	-0.355	-0.0638	-0.0687	-0.106
GATGTGC	0.11	0.0478	-0.156	-0.186	0.147	-0.793	0.106	0.0122	0.127	0.0448
CCGCTAG	0.172	0.143	-0.627	-0.208	0.0642	-0.944	0.136	0.0477	0.164	0.00237
GGTGACT	-0.00107	0.0646	0.776	1.92	-0.0448	2.29	0.24	-0.00741	0.0203	0.0528
TAAAGAG	0.0486	-0.0137	-1.51	-2.03	0.0898	-1.18	0.239	0.0903	0.107	0.0771
CAGCAGC	-0.121	-0.0477	-0.564	-0.622	-0.0907	-1.07	0.208	0.0366	-0.0807	-0.0776
CAGGAGA	0.0441	-0.0129	0.136	0.924	-0.0686	0.652	0.142	0.00149	-0.0616	0.0725
CGACGGG	0.117	0.0202	0.163	0.397	0.0521	0.85	0.0425	0.0299	0.0373	-0.0545
GCAAAGG	0.113	0.0286	0.0509	0.772	-0.0114	-0.0192	0.176	0.176	-0.0159	0.0429
TCGATCT	0.0321	0.0711	0.105	-0.82	0.0573	0.482	-0.151	-0.0267	0.0456	0.181
TACTCGT	-0.765	-0.207	-0.399	-1.84	-0.0115	-0.688	-3.26	-0.0211	0.0106	-0.17
GGAACCG	0.025	0.11	0.0645	0.16	0.0564	-0.128	0.131	0.127	0.047	0.0782
GGGCGAT	0.0749	0.00061	0.825	1.82	0.0442	2.17	0.184	-0.0524	0.00849	0.0563
CCACATC	-0.0765	0.00278	-0.0882	-0.569	-0.0509	-0.943	0.0346	-0.0943	-0.0869	-0.0473
AAATATC	-0.0419	0.00262	-3.15	-2.98	0.00305	-2.75	-0.491	-1.75	-0.00485	-1.86
TACCTAT	0.112	0.0788	-0.33	-2.6	0.0475	-0.425	-1.95	0.00959	-0.000811	-0.0706
TGATGCC	-0.0118	-0.054	-0.131	-0.291	0.117	-0.76	0.0506	0.00704	0.0506	-0.0208
CAAATAA	-0.0255	0.111	-0.201	-0.594	0.0392	-0.685	0.124	0.105	-0.0383	0.0748
AAGGAAG	0.0438	-0.0246	-0.324	-0.162	0.054	-0.98	0.205	0.134	-0.117	-0.0657
GACCTGA	0.0468	-0.00738	0.236	0.553	-0.0566	0.761	0.0188	-0.0706	0.0772	0.0894

Sequence	uncleaved DNA left (log2) [1]	uncleaved DNA left (log2) [2]	uncleaved DNA left (log2) [3]	uncleaved DNA left (log2) [4]	uncleaved DNA left (log2) [5]	uncleaved DNA left (log2) [6]	uncleaved DNA left (log2) [7]	uncleaved DNA left (log2) [8]	uncleaved DNA left (log2) [9]	uncleaved DNA left (log2) [10]
GCGAGCG	0.0304	0.00791	-0.224	0.0132	-0.0142	-0.666	0.0225	0.0313	-0.00647	-0.0748
AACTGTT	-3.66	-3.32	-1.76	-2.79	-0.503	0.294	-4.31	-0.624	-0.316	-0.46
ACACATT	0.0779	0.0924	-0.351	-1.8	0.128	-0.645	-0.12	0.0393	-0.0701	0.00528
AGTCGAT	-0.0416	0.045	0.249	0.809	0.132	1.25	-2	0.0299	0.0536	0.13
TTCGAGC	0.0712	-0.0746	0.248	0.383	-0.076	0.00925	-0.0477	-0.0797	0.033	-0.095
CGGTTTA	-0.0521	0.0489	0.0265	-0.0348	-0.0843	0.617	-0.1	-0.048	0.038	0.014
TAAGGCC	0.0671	0.0384	0.129	0.047	0.0394	0.447	-0.125	0.132	0.051	0.0531
CTGAGTT	0.000931	-0.0324	-0.0439	-1.67	-0.0564	-0.521	-0.271	-0.151	0.0958	-0.136
GCGCACA	0.0665	0.0822	0.146	0.441	0.0718	0.808	0.189	-0.0802	0.136	0.13
TGGGCGG	0.00868	0.0499	0.365	1.08	0.0209	1.49	0.0766	0.015	-0.00627	-0.0962
GTTATTG	0.0333	0.00643	0.0616	0.299	-0.0498	0.16	0.0523	0.04	0.06	-0.0179
CAATGGC	0.071	-0.0344	-0.625	-0.671	0.0625	-1.22	0.0399	-0.104	0.0455	-0.0853
CAACAAC	-0.0208	-0.0301	-0.184	-2.59	-0.0526	-0.694	-0.00849	-0.159	-0.136	-0.0794
TTGTATT	-3.37	-3.53	-0.647	-2.91	-2.97	-0.443	-3.72	-0.449	0.0135	-0.85
ACTCATT	-0.23	-0.291	-0.369	-2.14	-0.0142	-0.88	-3.15	-0.166	-0.0906	-0.03
GCGGGCC	-0.016	0.0552	0.473	1.16	-0.0226	1.54	0.0755	-0.0266	-0.00355	0.162
GCAGACC	0.00327	0.146	0.0654	0.61	0.056	0.585	0.0523	0.106	-0.0738	0.0377
AAAGTAA	0.0645	0.109	-0.0852	-0.196	0.0633	-0.33	-0.0405	0.0619	0.0654	0.0212
AACTCTT	-3.13	-3.06	-0.979	-3.02	-0.316	-0.482	-3.56	-0.151	-0.117	-0.213
AATCCTC	-0.0296	-0.059	0.189	-0.0473	0.0965	0.0659	-0.116	0.00275	-0.0122	0.0299
